Reference: PMC6160385
No constants are given. Whether binding was seen depends on the method and setting. Binding seen in cells or lysates may run through a third protein. Some binding calls cover weakened binding; strength is not graded here.

Protein sequences, listed by entry. Tags and fused reporters are not part of them. Lines headed by an entry give the natural chain unless they say otherwise; changes in a name come on top. Chains listed by the source or under a name are the forms on record and can include a tag or linker. Residues count along the entry.
Flag-β-TRCP-R474A (Q9Y297, form named): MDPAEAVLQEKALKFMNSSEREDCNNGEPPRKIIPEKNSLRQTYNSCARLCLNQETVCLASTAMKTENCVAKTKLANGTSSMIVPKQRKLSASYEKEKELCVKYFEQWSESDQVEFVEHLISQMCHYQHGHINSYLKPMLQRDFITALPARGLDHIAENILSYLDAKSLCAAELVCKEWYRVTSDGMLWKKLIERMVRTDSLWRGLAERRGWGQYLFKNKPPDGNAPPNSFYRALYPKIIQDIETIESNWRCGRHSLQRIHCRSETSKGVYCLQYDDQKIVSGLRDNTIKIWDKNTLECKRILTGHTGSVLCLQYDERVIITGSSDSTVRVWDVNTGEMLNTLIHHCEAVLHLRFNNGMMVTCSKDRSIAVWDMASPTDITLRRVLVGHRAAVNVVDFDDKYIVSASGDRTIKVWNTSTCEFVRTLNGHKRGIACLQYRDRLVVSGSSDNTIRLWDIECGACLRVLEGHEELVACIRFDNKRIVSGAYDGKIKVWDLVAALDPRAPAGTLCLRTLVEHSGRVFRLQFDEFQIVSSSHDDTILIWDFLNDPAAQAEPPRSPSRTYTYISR
β-TRCP1 of the GST pull-down panel of F-box proteins (Q9Y297, form named): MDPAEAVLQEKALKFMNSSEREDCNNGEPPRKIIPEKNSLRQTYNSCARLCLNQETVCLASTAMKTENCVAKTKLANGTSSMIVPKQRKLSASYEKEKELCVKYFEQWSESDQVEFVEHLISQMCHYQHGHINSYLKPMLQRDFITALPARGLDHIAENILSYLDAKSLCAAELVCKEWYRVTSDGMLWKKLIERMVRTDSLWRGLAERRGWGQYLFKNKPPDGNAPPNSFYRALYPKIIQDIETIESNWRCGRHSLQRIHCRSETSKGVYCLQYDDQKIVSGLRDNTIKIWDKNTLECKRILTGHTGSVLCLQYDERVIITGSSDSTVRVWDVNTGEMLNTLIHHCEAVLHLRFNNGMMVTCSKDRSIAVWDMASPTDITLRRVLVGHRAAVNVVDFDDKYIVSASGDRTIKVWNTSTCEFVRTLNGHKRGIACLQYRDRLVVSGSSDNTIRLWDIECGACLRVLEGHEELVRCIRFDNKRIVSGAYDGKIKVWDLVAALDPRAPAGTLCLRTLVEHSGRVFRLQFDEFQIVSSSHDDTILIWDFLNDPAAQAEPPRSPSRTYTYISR
UniProt P63208: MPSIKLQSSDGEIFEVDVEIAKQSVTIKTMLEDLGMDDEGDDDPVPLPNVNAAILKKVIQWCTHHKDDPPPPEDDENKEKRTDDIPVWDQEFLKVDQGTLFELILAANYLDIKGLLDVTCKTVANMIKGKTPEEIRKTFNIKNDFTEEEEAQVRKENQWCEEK
UniProt Q93034: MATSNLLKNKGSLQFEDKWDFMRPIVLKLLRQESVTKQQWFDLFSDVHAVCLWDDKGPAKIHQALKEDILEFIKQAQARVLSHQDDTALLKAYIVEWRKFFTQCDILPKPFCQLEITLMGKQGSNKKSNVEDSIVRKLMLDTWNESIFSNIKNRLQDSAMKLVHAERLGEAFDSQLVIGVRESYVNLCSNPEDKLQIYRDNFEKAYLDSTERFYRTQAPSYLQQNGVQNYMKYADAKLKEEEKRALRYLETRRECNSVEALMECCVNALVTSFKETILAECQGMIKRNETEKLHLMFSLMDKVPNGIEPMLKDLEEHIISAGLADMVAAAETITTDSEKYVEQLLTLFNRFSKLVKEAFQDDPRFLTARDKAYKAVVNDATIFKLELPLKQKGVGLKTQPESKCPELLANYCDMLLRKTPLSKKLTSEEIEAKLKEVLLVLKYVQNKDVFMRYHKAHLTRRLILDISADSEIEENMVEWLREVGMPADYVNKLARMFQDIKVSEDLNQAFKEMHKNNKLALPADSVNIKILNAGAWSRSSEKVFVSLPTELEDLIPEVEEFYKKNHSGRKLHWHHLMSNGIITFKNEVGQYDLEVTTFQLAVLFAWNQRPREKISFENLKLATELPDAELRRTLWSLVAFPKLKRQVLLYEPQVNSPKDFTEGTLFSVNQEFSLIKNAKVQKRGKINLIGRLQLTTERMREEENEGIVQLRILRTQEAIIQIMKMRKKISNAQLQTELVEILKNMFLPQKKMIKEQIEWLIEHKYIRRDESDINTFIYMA
UniProt Q13616: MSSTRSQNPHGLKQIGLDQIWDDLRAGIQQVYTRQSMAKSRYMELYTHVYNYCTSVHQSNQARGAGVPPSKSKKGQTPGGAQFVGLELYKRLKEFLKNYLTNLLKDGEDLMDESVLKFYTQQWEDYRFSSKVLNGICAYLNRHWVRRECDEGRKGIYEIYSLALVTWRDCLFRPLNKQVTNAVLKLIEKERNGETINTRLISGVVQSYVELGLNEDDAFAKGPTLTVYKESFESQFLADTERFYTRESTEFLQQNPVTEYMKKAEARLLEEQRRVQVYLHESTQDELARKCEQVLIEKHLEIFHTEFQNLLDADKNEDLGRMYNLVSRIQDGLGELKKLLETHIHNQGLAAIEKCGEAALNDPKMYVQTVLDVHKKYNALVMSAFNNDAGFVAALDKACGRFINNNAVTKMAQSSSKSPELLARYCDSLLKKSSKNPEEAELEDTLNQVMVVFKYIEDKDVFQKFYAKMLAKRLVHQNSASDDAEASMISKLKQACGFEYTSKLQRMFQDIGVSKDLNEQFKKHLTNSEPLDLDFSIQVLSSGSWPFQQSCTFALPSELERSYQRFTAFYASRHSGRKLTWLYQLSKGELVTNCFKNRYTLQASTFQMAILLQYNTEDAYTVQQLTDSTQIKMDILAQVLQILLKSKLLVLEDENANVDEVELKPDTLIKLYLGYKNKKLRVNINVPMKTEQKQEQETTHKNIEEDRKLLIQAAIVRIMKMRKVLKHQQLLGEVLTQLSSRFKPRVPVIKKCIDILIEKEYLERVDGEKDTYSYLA
UniProt Q13619: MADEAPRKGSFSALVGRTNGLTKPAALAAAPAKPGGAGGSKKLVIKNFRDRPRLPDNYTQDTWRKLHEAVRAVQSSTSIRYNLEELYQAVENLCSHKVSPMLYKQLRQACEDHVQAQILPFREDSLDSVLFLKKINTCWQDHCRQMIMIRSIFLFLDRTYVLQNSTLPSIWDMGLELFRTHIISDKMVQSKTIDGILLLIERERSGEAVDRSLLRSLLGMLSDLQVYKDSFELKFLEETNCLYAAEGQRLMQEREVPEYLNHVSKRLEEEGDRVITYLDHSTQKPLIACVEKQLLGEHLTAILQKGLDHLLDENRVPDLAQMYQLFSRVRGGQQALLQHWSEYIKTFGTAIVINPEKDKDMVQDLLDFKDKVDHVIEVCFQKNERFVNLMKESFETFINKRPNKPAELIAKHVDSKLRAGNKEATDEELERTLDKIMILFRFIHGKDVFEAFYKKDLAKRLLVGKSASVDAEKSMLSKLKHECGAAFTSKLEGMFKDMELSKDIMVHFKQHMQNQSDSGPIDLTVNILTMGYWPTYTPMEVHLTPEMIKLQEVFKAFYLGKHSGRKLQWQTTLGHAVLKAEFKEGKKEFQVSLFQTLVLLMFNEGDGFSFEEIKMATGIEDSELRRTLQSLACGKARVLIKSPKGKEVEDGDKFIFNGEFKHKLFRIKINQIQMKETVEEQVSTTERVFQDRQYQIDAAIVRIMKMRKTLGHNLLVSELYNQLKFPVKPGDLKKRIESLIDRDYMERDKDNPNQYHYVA
UniProt Q13617: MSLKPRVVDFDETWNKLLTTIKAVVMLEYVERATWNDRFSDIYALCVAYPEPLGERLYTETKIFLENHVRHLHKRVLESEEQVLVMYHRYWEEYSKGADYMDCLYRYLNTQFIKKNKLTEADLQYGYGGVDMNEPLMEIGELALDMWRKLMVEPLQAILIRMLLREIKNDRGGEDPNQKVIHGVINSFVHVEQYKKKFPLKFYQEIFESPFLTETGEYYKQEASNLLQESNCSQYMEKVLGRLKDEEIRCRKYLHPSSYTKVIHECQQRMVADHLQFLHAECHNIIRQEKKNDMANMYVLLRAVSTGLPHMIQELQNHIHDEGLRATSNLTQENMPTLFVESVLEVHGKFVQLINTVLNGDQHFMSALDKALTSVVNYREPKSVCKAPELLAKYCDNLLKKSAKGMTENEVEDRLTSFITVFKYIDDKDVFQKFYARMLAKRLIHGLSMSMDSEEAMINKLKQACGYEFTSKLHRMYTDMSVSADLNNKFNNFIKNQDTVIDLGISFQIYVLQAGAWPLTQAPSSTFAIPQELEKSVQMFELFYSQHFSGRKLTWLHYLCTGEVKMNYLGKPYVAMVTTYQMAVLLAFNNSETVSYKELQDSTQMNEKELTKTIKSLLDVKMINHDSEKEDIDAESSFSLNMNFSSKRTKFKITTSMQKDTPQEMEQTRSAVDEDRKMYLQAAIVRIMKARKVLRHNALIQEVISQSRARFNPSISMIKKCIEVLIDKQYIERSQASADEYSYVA
UniProt Q969H0: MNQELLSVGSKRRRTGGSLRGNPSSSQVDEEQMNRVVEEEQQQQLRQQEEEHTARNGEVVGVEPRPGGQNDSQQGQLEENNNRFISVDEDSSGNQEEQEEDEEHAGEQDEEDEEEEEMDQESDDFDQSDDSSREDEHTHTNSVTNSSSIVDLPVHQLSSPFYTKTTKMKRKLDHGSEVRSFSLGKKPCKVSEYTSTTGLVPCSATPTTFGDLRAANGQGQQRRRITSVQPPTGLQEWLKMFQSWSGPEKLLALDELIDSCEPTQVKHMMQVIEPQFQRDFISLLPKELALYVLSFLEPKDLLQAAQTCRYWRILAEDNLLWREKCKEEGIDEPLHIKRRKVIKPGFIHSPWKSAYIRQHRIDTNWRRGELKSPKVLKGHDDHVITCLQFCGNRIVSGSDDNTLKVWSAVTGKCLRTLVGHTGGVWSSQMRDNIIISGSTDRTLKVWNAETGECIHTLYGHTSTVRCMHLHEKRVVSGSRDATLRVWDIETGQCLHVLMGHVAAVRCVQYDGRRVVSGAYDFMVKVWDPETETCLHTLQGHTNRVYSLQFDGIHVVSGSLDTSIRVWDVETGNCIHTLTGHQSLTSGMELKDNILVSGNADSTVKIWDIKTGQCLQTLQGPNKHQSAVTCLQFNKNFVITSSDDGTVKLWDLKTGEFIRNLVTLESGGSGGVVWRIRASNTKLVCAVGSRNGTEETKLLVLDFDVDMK
UniProt Q9ULT6, residues 56-936: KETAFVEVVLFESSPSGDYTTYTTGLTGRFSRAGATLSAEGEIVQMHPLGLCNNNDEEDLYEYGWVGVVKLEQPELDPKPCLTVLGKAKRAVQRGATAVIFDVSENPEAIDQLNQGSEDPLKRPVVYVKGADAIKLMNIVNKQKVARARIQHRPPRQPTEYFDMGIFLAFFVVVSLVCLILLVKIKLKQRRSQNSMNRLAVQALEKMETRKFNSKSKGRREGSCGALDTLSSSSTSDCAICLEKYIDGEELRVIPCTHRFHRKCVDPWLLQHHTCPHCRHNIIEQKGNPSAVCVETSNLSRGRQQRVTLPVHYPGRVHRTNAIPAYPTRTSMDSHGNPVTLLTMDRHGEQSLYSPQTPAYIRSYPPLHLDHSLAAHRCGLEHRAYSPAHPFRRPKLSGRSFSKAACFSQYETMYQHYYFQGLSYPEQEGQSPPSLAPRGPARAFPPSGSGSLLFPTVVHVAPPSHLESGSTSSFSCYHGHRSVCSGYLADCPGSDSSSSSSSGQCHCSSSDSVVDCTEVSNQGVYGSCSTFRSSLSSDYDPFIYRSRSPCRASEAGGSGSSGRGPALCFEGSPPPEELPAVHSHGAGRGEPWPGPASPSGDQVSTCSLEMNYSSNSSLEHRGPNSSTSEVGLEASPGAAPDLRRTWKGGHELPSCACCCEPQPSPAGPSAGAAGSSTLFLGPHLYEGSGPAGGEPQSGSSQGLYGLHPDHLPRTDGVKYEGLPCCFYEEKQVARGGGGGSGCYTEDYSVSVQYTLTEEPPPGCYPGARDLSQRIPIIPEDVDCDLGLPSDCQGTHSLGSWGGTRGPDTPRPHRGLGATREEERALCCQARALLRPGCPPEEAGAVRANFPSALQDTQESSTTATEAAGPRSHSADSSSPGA

Legend:
Flag-β-TRCP-R474A = Flag-β-TRCP-R474A (UniProt Q9Y297); test: co-IP; RNF43 (wild type or DSG degron mutant) with β-TRCP1 (wild type or R474A) in transfected cells; Figs. S1C, S1D and S3B, whose legends were not shown; told together with the co-IPs of Figs. 2C and 4B
Flag-β-TRCP [1] = biological target: Flag-β-TRCP (UniProt Q9Y297); test: as above
Flag-β-TRCP [2] = biological target: Flag-β-TRCP (UniProt Q9Y297); test: co-IP; HEK293T cells transfected, MG132 10 μmol/L for 12 h before harvest; HA- or Flag-conjugated beads; immunoblot
Myc-Cullin 3 = Myc-Cullin 3 (UniProt Q13618); test: co-IP; HeLa cells co-transfected, MG132 10 μmol/L for 12 h before harvest; lysis in EBC buffer, HA- or Flag-conjugated beads 3-4 h at 4°C, washes in NETN buffer; immunoblot
Myc-Skp1 = Myc-Skp1 (UniProt P63208); test: as above
Myc-Cullin 5 = Myc-Cullin 5 (UniProt Q93034); test: as above
Myc-Cullin 1 = Myc-Cullin 1 (UniProt Q13616); test: as above
Myc-Cullin 4A = Myc-Cullin 4A (UniProt Q13619); test: as above
Flag-β-TRCP [3] = biological target: Flag-β-TRCP (UniProt Q9Y297); test: as above
Myc-Cullin 2 = Myc-Cullin 2 (UniProt Q13617); test: as above
Flag-β-TRCP [4] = biological target: Flag-β-TRCP (UniProt Q9Y297); test: co-IP; HeLa cells transfected with ZNRF3 wild type or degron mutants and β-TRCP; immunoblot of IP and WCL
Flag-β-TRCP [5] = biological target: Flag-β-TRCP (UniProt Q9Y297); test: co-IP; HEK293 cells transfected with ZNRF3 and β-TRCP; cell lysates without phosphatase treatment; immunoblot
[6] = biological target: β-TRCP1 of the GST pull-down panel of F-box proteins (UniProt Q9Y297); test: pull-down; GST pull-down from HEK293T cells transfected with a panel of F-box proteins and ZNRF3, MG132 10 μmol/L for 12 h; 1 mg lysate with glutathione-sepharose 3-4 h at 4°C, washes in NETN buffer; immunoblot
[7] = biological target: FBW7 of the GST pull-down panel of F-box proteins (UniProt Q969H0); test: as above

Substance	binding (Flag-β-TRCP-R474A)	binding (Flag-β-TRCP [1])	binding (Flag-β-TRCP [2])	binding (Myc-Cullin 3)	binding (Myc-Skp1)	binding (Myc-Cullin 5)	binding (Myc-Cullin 1)	binding (Myc-Cullin 4A)	binding (Flag-β-TRCP [3])	binding (Myc-Cullin 2)	binding (Flag-β-TRCP [4])	binding (Flag-β-TRCP [5])	binding [6]	binding [7]
HA-RNF43 (from UniProt Q68DV7 24-783)	binds	binds												
HA-ZNRF3 (from UniProt Q9ULT6 56-936)			binds	no binding	binds	no binding	binds	no binding	binds	no binding	binds	binds	binds	no binding
